According to PubChem BioAssay AID624417 (National Center for Advancing Translational Sciences (NCATS), 2012):
Among all 410,000 compounds or so, about 6,400 (1.6%) were called active. Inconclusive results, whose numbers are uncertain, are shown with a selection of clear calls. The call rests on the fitted dose curve; in most records, active means well fitted inhibition curve with a large enough effect; inconclusive means small, poorly fitted or top-dose-only effect; inactive means no such curve, though single readings can be large or run the other way. Potencies of inconclusive entries are doubtful fits and often do not repeat.

The molecules below were run against Glucagon-like peptide 1 receptor (Homo sapiens) (UniProt P43220) (assay: qHTS of GLP-1 Receptor Inverse Agonists (Inhibition Mode)). Conditions: HEK293 GLP-1R CRE-luciferase, luminescence, 24 h, GLP-1R form is constitutively active; activity change, negative = inhibition: at 38.3 µM (top of the series) unless noted.
UniProt P43220, sequence (P43220 whole entry, looked up): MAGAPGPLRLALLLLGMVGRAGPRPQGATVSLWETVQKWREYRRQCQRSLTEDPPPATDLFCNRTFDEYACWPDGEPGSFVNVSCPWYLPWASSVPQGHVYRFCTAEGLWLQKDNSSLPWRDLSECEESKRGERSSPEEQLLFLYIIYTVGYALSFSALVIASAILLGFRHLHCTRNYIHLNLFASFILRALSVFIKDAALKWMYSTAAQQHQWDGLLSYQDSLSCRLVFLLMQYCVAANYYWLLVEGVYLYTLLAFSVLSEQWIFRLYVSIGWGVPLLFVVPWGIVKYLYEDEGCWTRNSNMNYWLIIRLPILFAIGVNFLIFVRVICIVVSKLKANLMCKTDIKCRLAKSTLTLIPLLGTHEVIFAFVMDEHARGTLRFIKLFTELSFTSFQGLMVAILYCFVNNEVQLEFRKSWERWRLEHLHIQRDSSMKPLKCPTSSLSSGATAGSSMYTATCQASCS
Outline: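 Stable HEK293 clone (constitutively active GLP-1R + cAMP-response luciferase); 200 cells/uL plated, 12 h pre-culture, compound 24 hr, 37 deg C/5% CO2; detection reagent 12 min RT; luminescence.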
Further: nearly all actives have a fitted effect of over 55% in size.
On the % scale 0 is the no-effect control and ±100 the full control effect; potency means the concentration at half of the fitted maximal effect; tags describe the fitted curve by direction and shape.

Potency, inconclusive:
CCCN1C(=O)C(Cc2nc3ccccc3c(=O)n2CC)c2ccccc21 (stereo unspecified) 28.2 µM [inhibitor, single point], CC(C)(C)c1ccc(CC(=O)N2CCC2(C)C(=O)NS(=O)(=O)c2cccc(OC(F)F)c2)cc1 (stereo unspecified) 14.1 µM [inhibitor, single point], CCN(CC)S(=O)(=O)c1ccc(N2CCCC2)c(NS(=O)(=O)c2ccc(OC)cc2)c1 28.2 µM [inhibitor, single point], O=C(C1CCC1)N1CCN(S(=O)(=O)c2ccc(Br)cc2Cl)CC1 11.2 µM [inhibitor, single point], CSc1ccccc1NC(=O)COc1ccccc1Cl 10 µM [inhibitor, single point], COc1ccc(NC(=O)N(C)[C@H]2C[C@H]3c4[nH]c5ccccc5c4CCN3C[C@H]2[C@H](C)O)cc1 28.2 µM [inhibitor, single point], O=[N+]([O-])c1ccc(N2CCN(Cc3ccncc3)CC2)cc1 31.6 µM [inhibitor, single point], COc1ccccc1Cc1c(-c2ccc(Cl)cc2)nc2c(C)cc(Br)cn12 1.58 µM [inhibitor, full curve, poor fit], CCOc1ccc(NC(=O)CN2CCN(CC(=O)Nc3ccc(Cl)c(C(F)(F)F)c3)CC2)cc1 5.01 µM [inhibitor, full curve, poor fit], CCc1ccc(-c2ccc(C(=O)C(F)(F)F)[nH]2)cc1 25.1 µM [inhibitor, partial curve, poor fit], CC(C)CC1Nc2ncnc(N3CCCCC3)c2N(Cc2ccc(Br)cc2)C1=O (stereo unspecified) 10 µM [inhibitor, single point], CCCN1CCC(=O)N([C@H](CSc2ccc(C)cc2)CC(C)C)CC1 28.2 µM [inhibitor, single point], O=c1cc(-c2ccccc2)oc2ccc3ccccc3c12 1.58 µM [inhibitor, full curve, poor fit], Cc1cc(OCC(=O)NCC2(N3CCN(C)CC3)CCCCC2)cc(C)c1Cl 28.2 µM [inhibitor, single point], O=C(NCCCN1CCCCC1)c1ccc(CS(=O)c2ccc(Cl)cc2)o1 (stereo unspecified) 12.6 µM [inhibitor, single point], Cc1ccc(CN(C(=O)CNC(=O)c2cccs2)C(C(=O)NCC2CCCO2)c2ccccc2)cc1 (stereo unspecified) 31.6 µM [inhibitor, single point], CC(=O)Nc1cccc(Nc2nc(-c3ccccc3F)nc3ccccc23)c1 8.91 µM [inhibitor, partial curve, poor fit], CCN(c1ccccc1)S(=O)(=O)c1nnc(NC(=O)COc2ccc(OC)cc2)s1 31.6 µM [inhibitor, single point], CC1Sc2ccc(S(=O)(=O)N3CCN(c4ccccc4)CC3)cc2NC1=O (stereo unspecified) 28.2 µM [inhibitor, single point], CC(C)C[C@@]12C(=O)N(c3cccc(Cl)c3)C(=O)N1[C@H](c1ccc(F)cc1)[C@@H]1C(=O)N(C3CCCCC3)C(=O)[C@@H]12 5.62 µM [inhibitor, partial curve, poor fit], CCOC(=O)c1cnc2c(c(C)nn2C)c1Oc1ccc(Cl)cc1 11.2 µM [inhibitor, single point], CC(=O)Nc1ccc(S(=O)(=O)N(Cc2cccnc2)Cc2cc3ccccc3[nH]c2=O)cc1 7.94 µM [inhibitor, partial curve], Cc1ccc(N2CCN(C3=NC(=O)C(Cc4ccccc4)S3)CC2)cc1 (stereo unspecified) 10 µM [inhibitor, single point], CCCN(CCC)S(=O)(=O)c1cc2c(cc1Br)CCN2C(=O)CC 28.2 µM [inhibitor, single point], O=C(NC1CCCC1)c1c[nH]c2ccc(S(=O)(=O)Nc3cccc(C(F)(F)F)c3)cc2c1=O 14.1 µM [inhibitor, single point], CC(=O)Nc1ccc2c(c1Br)Cc1ccccc1-2 28.2 µM [inhibitor, single point], CCC(CC)C(=O)OCC(=O)Nc1cccc(S(=O)(=O)N(C)c2ccccc2)c1 28.2 µM [inhibitor, single point], Cc1ccc(C)c(NC(=O)C2CCCN(S(=O)(=O)c3c(C)noc3/C=C/N(C)C)C2)c1 (stereo unspecified) 8.91 µM [inhibitor, partial curve], CC1CCN(c2c(NCC3CCC(C(=O)NCCc4ccc(Cl)cc4)CC3)c(=O)c2=O)CC1 (stereo unspecified) 28.2 µM [inhibitor, single point], O=c1oc(/C=C/c2ccccc2)nc2ccccc12 4.47 µM [inhibitor, partial curve, poor fit], CSc1ncccc1C(=O)OCC(=O)N1CC2(C)CC1CC(C)(C)C2 (stereo unspecified) 11.2 µM [inhibitor, partial curve, poor fit], CCCCC1=CC2=C(c3ccco3)C(=O)C(C)(OC(=O)c3ccc(OC)cc3)C(=O)C2=CN1CC1CC1 (stereo unspecified) 10 µM [inhibitor, partial curve], COc1ccc(-c2c(C)[nH]n3c(=O)c(Cc4ccccc4)c(C)nc23)cc1 28.2 µM [inhibitor, single point], Cc1ccc(S(=O)(=O)N2CCN(C(=O)COC(=O)/C=C/c3ccccc3[N+](=O)[O-])CC2)c(C)c1 28.2 µM [inhibitor, single point], CN(C)S(=O)(=O)Oc1ccc(C(=O)Nc2cccc(C(F)(F)F)c2)cc1 7.08 µM [inhibitor, partial curve, poor fit], O=c1c(Cl)cc(Cl)nn1-c1ccccc1 28.2 µM [inhibitor, single point], COc1ccc(/C=C/C(=O)OCC(=O)Nc2cccc(Oc3ccccc3)c2)c(OC)c1 22.4 µM [inhibitor, single point], CCOc1ccc(N(CC(=O)Nc2cccc(Br)c2)S(C)(=O)=O)cc1 28.2 µM [inhibitor, single point], CC(=O)Nc1ccc(Sc2ccc([N+](=O)[O-])o2)cc1 28.2 µM [inhibitor, single point], Cc1ccc(N(C)S(=O)(=O)c2ccc3[nH]cc(C(=O)NCCCN4CCOCC4)c(=O)c3c2)cc1C 31.6 µM [inhibitor, single point], C=CCc1c(C)nc2cc(-c3ccc(C)cc3)[nH]n2c1=O 10 µM [inhibitor, partial curve, poor fit], O=C(NCc1ccc2c(c1)OCO2)c1ccc(COc2cccc(Cl)c2)o1 12.6 µM [inhibitor, single point], COc1ccc(Cl)cc1NC(=O)CCc1nc(-c2ccccc2F)no1 22.4 µM [inhibitor, single point], COC(=O)Cc1cn(-c2ncc(C(F)(F)F)cc2Cl)c2ccccc12 28.2 µM [inhibitor, single point], CCOC(=O)c1ccc(NC(=S)NCc2ccc(F)cc2)cc1 10 µM [inhibitor, partial curve, poor fit], Cc1ccc(C2=CC(=O)C[C@H](c3ccc4c(c3)OCO4)C2)cc1 31.6 µM [inhibitor, single point], Cc1ccc(CN=C(N)Nc2nc(C)cc(C)n2)cc1 2.51 µM [inhibitor, full curve, poor fit], COc1ccc(-n2ncc3c(N4CCN(c5cccc(C)c5)C(C)C4)ncnc32)cc1 (stereo unspecified) 1.12 µM [inhibitor, full curve, poor fit], CCN(CC)CCNCc1ccc(Br)cc1OCC(=O)NCc1ccccc1 11.2 µM [inhibitor, partial curve, poor fit]

Potency, active:
COc1ccc(CC2S/C(=N/N=C/c3ccccc3O)NC2=O)cc1 (stereo unspecified) 2.51 µM, CCOc1cc(CNCc2ccncc2)cc(Br)c1OCc1ccccc1F 11.2 µM, CCCCN(Cc1ccccc1)C(=O)C1CCN(Cc2sccc2C)CC1 7.08 µM

Activity change, negative = inhibition, inactive:
CN(c1ccccc1)S(=O)(=O)c1ccc(NC(=O)c2ccc(-c3ccccc3)cc2)cc1 -28.3%, CCOc1ccc(NC(=O)c2cn(-c3ccc(OCC)cc3)c(=O)c3cc(OC)c(OC)cc23)cc1 6.29%, S=C(Nc1ccc(Oc2ccccc2)cc1)N(CCCN1CCOCC1)Cc1ccccn1 -24.1%, CC(=O)c1cccc(S(=O)(=O)NCCCN2CCOCC2)c1 11.3%, C=CCN1N=C(/C=C/c2ccc(OC)cc2)CCC1=O 19%, NS(=O)(=O)c1ccc(NC(=O)CCn2c(=O)oc3ccccc32)cc1 10.9%, CCOC(=O)Cc1[nH]nc2c1C(c1cccc(OC)c1OC)C(C#N)=C(N)O2 (stereo unspecified) 0.0733%, CCOC(=O)c1c(C)[nH]c(C)c1S(=O)(=O)N(C)CC(=O)Nc1cccc(C)c1 12.5%, COc1ccc(-n2nc(C(=O)NCC(=O)Nc3cc(C)ccc3OC)c3ccccc3c2=O)c(OC)c1 0.181%
